Source: ChEMBL document CHEMBL1201862, “PubChem BioAssay data set” (2004)

The compounds below were run on NCI-H322M (assay: NCI-60 cell line screen, 48 h).
For `Cc1ccc(S(=O)(=O)N/N=C2\C=C[C@]3(CC2)C(=O)N(C)c2ccccc23)cc1`, the GI50 was inactive: 48.3 µM.
With `CC(=O)Oc1c(C)cc2c(c1C)C(C)(C)CN2C(=O)C(C)(C)C` the GI50 was inactive: > 100 µM.
With `Cc1ccc(/N=N/c2c(O)ccc3cc(S(=O)(=O)O)ccc23)cc1` the GI50 was inactive: 60.4 µM.
`C[N+]1(C)C/C(=C\C=C\c2ccccc2)C(=O)/C(=C/C=C/c2ccccc2)C1` was tested, and the GI50 was inactive: 32.4 µM.
For `CCOP(=O)(OCC)C(F)(F)CC1CCCCC1`, the GI50 was inactive: > 10 µM.
For `CC(c1ccccc1)N1CCN(C(C)c2ccccc2)CC1` (stereo not given), the GI50 was inactive: > 100 µM.
In the case of `O=c1[nH]c2c3ccccc3ccc2c2cc3c(cc12)OCO3`, the GI50 is reported as inactive: > 100 µM.
In the case of `Nc1c(S(=O)(=O)c2ccccc2)c2nc3ccccc3nc2n2c1nc1ccccc12`, the GI50 is reported as inactive: > 53.6 µM.
With `CCOC(=O)C1(Cc2ccc3c(c2)CCC3)Cc2cc3c(cc2C1)CCC3` the GI50 was inactive: 42 µM.
`NCCCCNc1ccc2c(=O)[nH][nH]c(=O)c2c1` was tested, and the GI50 was inactive: > 100 µM.
With `[Se]=P(c1ccccc1)(c1ccccc1)c1ccc(C(c2ccccc2)=P(c2ccccc2)(c2ccccc2)c2ccccc2)cc1` the GI50 was inactive: 2.52 µM.
In the case of `CC1OC(O)C(O)C(O)C1O` (stereo not given), the GI50 is reported as inactive: > 100 µM.
For `C=CC1=C(C)c2cc3[nH]c(c4c5nc(cc6[nH]c(cc1n2)c(C=O)c6CC)C(C)=C5C(=O)[C@@H]4C(=O)OC)[C@@H](CCC(=O)O)[C@@H]3C`, the GI50 was inactive: > 100 µM.
In the case of `CC(C)(C)OC(=O)CC(NC(=O)OC(C)(C)C)C(=O)NC(CCCCNC(=O)OCc1ccccc1)C(=O)NC(C)(C)C(=O)NCCC(=O)OCc1ccccc1` (stereo not given) (Boc-D(OtBu)K(Cbz)[Aib][βAla]-OBn; configuration not given here), the GI50 is reported as inactive: > 100 µM.
For `CC(C)(C)OC(=O)NC(Cc1ccc(OCc2ccccc2)cn1)C(=O)O` (stereo not given), the GI50 was inactive: > 100 µM.
`O=C1C(/N=N/c2ccc(-c3nc4ccccc4[nH]3)cc2)NC(=S)N1c1ccccc1` (stereo not given) was tested, and the GI50 was inactive: 87.7 µM.
For `O=C(c1ccccc1)c1ccc(-n2c3ccccc3c3ccc4c(c32)C(=O)C=CC4=O)cc1`, the GI50 was inactive: 20 µM.
With `Nc1nc(=O)c2c([nH]1)NCC(CCNc1ccc(C(=O)O)cc1)N2` (stereo not given) the GI50 was inactive: > 100 µM.
For `Cn1c(=O)cc(NNc2ccc(Cl)c(Cl)c2)[nH]c1=O`, the GI50 was inactive: 18.3 µM.
For `Cc1cccc2nc3cccc(C(=O)NCCC[N+](C)(CCCNC(=O)c4cccc5nc6cccc(C)c6nc45)Cc4ccc([N+](=O)[O-])n4C)c3nc12`, the GI50 was inactive: 1.5 µM.
In the case of `N#[N+]c1ccccc1Sc1ccc(Cl)cc1`, the GI50 is reported as inactive: > 100 µM.
With `O=C1Cc2cc3ccccc3nc2-c2ccccc2N1` the GI50 was inactive: 22.4 µM.
With `CCOC(=O)c1ccc(NC(=O)O/N=C(/Cl)C(C)C)cc1` the GI50 was inactive: 16.7 µM.
With `CCOC(=O)C(=CNc1ccc(NC2=NCC(C)S2)cc1)C(=O)OCC` (stereo not given) the GI50 was inactive: 59.4 µM.
With `COC(=O)C1C(=O)C=CN([C@H](C)c2ccccc2)[C@@H]1Cc1ccc(OC)c(OCc2ccccc2)c1I` (stereo not given in full) the GI50 was inactive: 24.9 µM.
In the case of `CCC(=O)c1c(NOC2OCC(OC(C)=O)C(OC(C)=O)C2OC(C)=O)nc(OC)n(C)c1=O` (stereo not given), the GI50 is reported as inactive: > 100 µM.
With `Cc1c(C#N)c(N)n(C2OC(CO)C(O)C(O)C2O)c(=S)c1C#N` (stereo not given) the GI50 was inactive: > 100 µM.
With `O=C(O)C(F)(F)C(F)(F)C(F)(F)C(F)(F)C(=O)O` the GI50 was inactive: > 100 µM.
For `c1ccc([P+](CCNCCNCC[P+](c2ccccc2)(c2ccccc2)c2ccccc2)(c2ccccc2)c2ccccc2)cc1`, the GI50 was inactive: > 100 µM.
`CCN(CC)c1ccc(/N=C2/C=CC(=C(C#N)C#N)c3ccccc32)c(C)c1` was tested, and the GI50 was inactive: 4.06 µM.
In the case of `Cn1c(=O)c(C(=O)NC(=O)OCc2ccccc2)cn(CCSCCOC(=O)NCCCCCCNC(=O)OCCSCCn2cc(C(=O)NC(=O)OCc3ccccc3)c(=O)n(C)c2=O)c1=O`, the GI50 is reported as inactive: > 100 µM.
With `CCCCCCCCCCCCCB(O)O` the GI50 was inactive: > 100 µM.
In the case of `O=C(NCCNCCO)N/N=C/c1ccccc1`, the GI50 is reported as inactive: > 100 µM.
With `CSC1(C)C(=O)Nc2c(OCc3ccccc3)cc([N+](=O)[O-])cc21` (stereo not given) the GI50 was inactive: 36.1 µM.
In the case of `CCCCC(=O)Nc1ccc2c(C)cc(-c3ccc(-c4cc(-c5ccc(C)cc5)cc(-c5ccc(-c6cc(C)c7ccc(NC(=O)CCCC)nc7n6)cc5)n4)cc3)nc2n1`, the GI50 is reported as inactive: > 100 µM.
For `C=C(C(=O)OC)c1cc2ccccc2n1S(=O)(=O)c1ccccc1`, the GI50 was inactive: 13.5 µM.
For `CC(=O)O[C@H]1CC2C(C3CCC(C(C)CCC(N)=O)[C@]31C)[C@H](OC(C)=O)C[C@@H]1CC3(CC[C@]21C)OOC1(CC[C@]2(C)C4C[C@H](OC(C)=O)[C@]5(C)C(C(C)CCC(N)=O)CCC5C4[C@H](OC(C)=O)C[C@@H]2C1)OO3` (stereo not given in full), the GI50 was inactive: 2 µM.
With `COc1ccccc1CNC(=O)[C@H](Cc1ccc(O)cn1)NC(C)=O` the GI50 was inactive: > 100 µM.
In the case of `CCCCN1C(=O)C2c3[nH]c4ccccc4c3C3CCCCC3C2C1=O.CCCCN1C(=O)C2c3[nH]c4ccccc4c3[C@@H]3CCCCC3C2C1=O` (stereo not given), the GI50 is reported as inactive: 15.6 µM.
With `COc1ccc(-c2[nH]c3c4c(nc5c(c24)C(=O)CC(C)(C)C5)CC(C)(C)C3)cc1` the GI50 was inactive: > 100 µM.
With `Cc1cc2c(c3oc(C(O)(CO)C4CO4)cc(=O)c13)C(=O)c1c(O)cccc1C2=O` (stereo not given) the GI50 was active: 0.000843 µM.
For `O=C1c2ccccc2C(=O)N1c1nc(-c2ccc(Cl)cc2)cc(N2N=C(c3ccc(Br)cc3)CC2c2ccccc2)n1` (stereo not given), the GI50 was inactive: 18.5 µM.
In the case of `C[C@H](N)C(=O)N[C@@H]1[C@H]2C(=C(O)C[C@@H](O)[C@@H]2O)C(=O)O[C@@H]1C`, the GI50 is reported as inactive: > 100 µM.
For `O=P1(O)c2ccccc2CCc2ccccc21`, the GI50 was inactive: > 100 µM.
`CCCCCCCCCCCCCCCCCCNc1nc(=O)n(C2CC(O)C(COP(=O)(O)O)O2)cc1F` (stereo not given) was tested, and the GI50 was inactive: > 100 µM.

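Grown in 96-well plates, cells were treated for 48 hours with each compound at five concentrations. Insufficient inhibition: endpoint recorded as highest concentration tested. GI50 marks 50% less growth.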 The source made the active and inactive calls. Rule as the data show it: active = GI50 up to about 1.1 µM and inactive = higher. Square brackets hold non-standard residues; d marks the D form. Peptide text beside a SMILES is read from it. * marks the point of attachment. Cbz = O=C(OCc1ccccc1)*; Boc = CC(C)(C)OC(=O)*; Aib = CC(C)(N)C(=O)O; OBn = c1ccc(CO*)cc1; OtBu = CC(C)(C)O*; βAla = NCCC(=O)O
